# The whole screen tested about 420,000 compounds, of which about 50,000 (12%) were called active. Inconclusive means that the source gave no clear call. Such entries were picked first, then a sample of the others. Calls come from the whole dose curve; as a rule, active = well fitted inhibition curve with a large enough effect; inconclusive = small, poorly fitted or top-dose-only effect; inactive = flat fitted curve, though single readings scatter. No potency is given beside an inconclusive call; the fits are too rough.
# Assay: qHTS for Inhibitors of human tyrosyl-DNA phosphodiesterase 1 (TDP1): qHTS in cells in presence of CPT; note: nearly all actives have a fitted effect of over 55% in size
# Settings: chicken DT40 Tdp1-/-;hTDP1 cells + 20 nM CPT, ATP luminescence, 48 h; activity change, negative = growth inhibition: at 46.2 µM (top of the series)
# How it was run: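 Chicken DT40 Tdp1-/- cells complemented with human TDP1, 400 cells/well, exposed to compounds plus 20 nM camptothecin for at least 48 h at 37 C; viability read as ATP content by CellTiter-Glo luminescence.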
# % is set by controls: 0 for no effect and ±100 for the full control effect; potency is the fitted concentration of half-maximal effect; tags give direction and shape of the fitted curve.
Compound,Potency,"activity change, negative = growth inhibition"
N#Cc1ccc(C(C(=O)NCc2ccccc2)n2c(=O)c(-c3cc4ccccc4[nH]3)nc3ccccc32)cc1 (centres undefined),active: 11.6 µM,–
Cc1ccc(C(=O)N2CC3(C(C)C)CN(C(=O)c4ccc(C)cc4)CC(C(C)C)(C2)C3=O)cc1,"inconclusive [inhibitor, partial curve, poor fit]",–
CC(C)Sc1nnc(-c2c[nH]c3ccccc23)n1C,"inconclusive [inhibitor, partial curve]",–
CCc1cccc(-n2nnc(-c3nsc(NC(=O)c4cccc(OC)c4)n3)c2C)c1,"inconclusive [inhibitor, partial curve]",–
Cc1cccc(CC(=O)N2CC(=O)Nc3ccc(Br)cc3C2c2ccc(F)cc2)c1 (centres undefined),"inconclusive [inhibitor, single point]",–
CC(=O)N1c2ccc(S(=O)(=O)NCCC(=O)Nc3ccc(C)c(F)c3)cc2CC1C (centres undefined),"inconclusive [inhibitor, single point]",–
CCOC(=O)c1ccc(NC(=O)Cn2c(=O)cc(C)c3c(C)nn(-c4ccc(CC)cc4)c32)cc1,"inconclusive [inhibitor, partial curve, poor fit]",–
Cc1coc2c(C)c3oc(=O)c(CCC(=O)NCCc4ccccc4F)c(C)c3cc12,"inconclusive [inhibitor, single point]",–
CC(C)N(C(=O)CSc1cn(CC(=O)N2CCCCCC2)c2ccccc12)C(C)C,"inconclusive [inhibitor, single point]",–
CC(C#N)Sc1ccc(S(=O)(=O)N2CCCC2)cn1 (centres undefined),inactive,–
COc1ccc(CNC(=O)CN(C)S(=O)(=O)c2ccc3nc(C)sc3c2)cc1,inactive,–
COc1cccc(C(=O)Nc2ccccc2C(=O)OCc2cc(=O)n3c4c(sc3n2)CCCC4)c1,"inconclusive [inhibitor, single point]",–
COc1cccc(OCCNC(=O)c2cc(OC)c(OC)c(OC)c2)c1,"inconclusive [inhibitor, single point]",–
CCCCCCCCN1C(=O)[C@H](CC(=O)N2CCN(C(=O)C3CC3)CC2)C[C@@]2(C(=O)OCC)CCCC=C12,active: 23.1 µM,–
Cc1ccc(S(=O)(=O)CC(=O)c2ccc(C(C)(C)C)cc2)cc1,"inconclusive [inhibitor, single point]",–
CC(=O)Nc1ccc(Nc2cc(C)nc3c(-c4ccccc4)cnn23)cc1,"inconclusive [inhibitor, single point]",–
COc1ccc(-n2nc(C(=O)N3CCCCC3C)c3c4ccccc4n(C)c3c2=O)cc1Cl (centres undefined),"inconclusive [inhibitor, single point]",–
COc1ccccc1CNS(=O)(=O)c1ccc2c(c1)oc(=O)n2C,"inconclusive [inhibitor, partial curve, poor fit]",–
c1ccc(COc2cccc(-c3cc4nc(NCCOc5ccccc5)ccn4n3)c2)cc1,"inconclusive [inhibitor, single point]",–
COc1ccc(Br)cc1S(=O)(=O)Nc1cc(-c2cn3ccccc3n2)ccc1C,"inconclusive [inhibitor, partial curve]",–
O=C1CCNCCN1[C@H](CO)Cc1ccccc1,"inconclusive [inhibitor, single point]",–
CCOc1ccc(CCNC(=O)c2cn(-c3ccc(OC)cc3)c(=O)c3ccccc23)cc1OCC,"inconclusive [inhibitor, single point]",–

Compound,Potency,"activity change, negative = growth inhibition"
C[C@@]12C(=O)Nc3ccc(F)cc3C(=O)N1[C@H]1c3ccccc3OC[C@@H]1[C@@H]2c1ccccc1,"inconclusive [inhibitor, single point]",–
CN1CCN(S(=O)(=O)c2ccc(NC(=O)c3ccc([N+](=O)[O-])cc3)cc2)CC1,"inconclusive [inhibitor, single point]",–
CNC(=O)CCc1nc(-c2ccc(C(C)(C)C)cc2)no1,"inconclusive [inhibitor, single point]",–
COCCCn1c(SCC(=O)NC2CCS(=O)(=O)C2)nnc1-c1ccc(Cl)cc1 (centres undefined),inactive,–
O=Cc1ccc2c(c1)CCN2Cc1ccccc1,inactive,–
CC(C)(C)C(=O)OC/C(N)=N/OC(=O)c1ccccc1,"inconclusive [inhibitor, single point]",–
Cc1ccc(C)c(Nc2nc(-c3ccncc3)nc3ccccc23)c1,inactive,–
OC[C@@H]1CN(Cc2ccco2)C[C@H](n2cnc3c(NC4CCCC4)ncnc32)O1,inactive,–
Cc1ccc(C)c(-c2nnc(OCC(=O)Nc3cc(C)on3)c3ccccc23)c1,inactive,–
Cn1cc(C(=O)N/N=C/c2cccs2)c2ccccc21,inactive,–
CCOc1ccc(NS(=O)(=O)c2cc(C(=O)N3CCC3)ccc2Cl)cc1,"inconclusive [inhibitor, single point]",–
Cc1ccc2[nH]c(O)c(N=NC(N)=S)c2c1,–,inconclusive: -33% [inhibitor]
O=C(c1ccc(F)cc1)N1CCCCC(S(=O)(=O)c2ccccc2)C1=O (centres undefined),"inconclusive [inhibitor, single point]",–
CN(C(=O)c1ccccc1OC1CCN(S(C)(=O)=O)CC1)C1CCOC1 (centres undefined),inactive,–
CCN(CC)S(=O)(=O)c1cccc(NC(=O)c2cc3ccccc3o2)c1,"inconclusive [inhibitor, partial curve]",–
O=S(=O)(c1ccc(F)cc1)N1CCN(Cc2cc3c(cc2Br)OCCO3)CC1,"inconclusive [inhibitor, single point]",–
CC(Oc1ccc2oc3ccccc3c2c1)C(=O)NC12CC3CC(CC(C3)C1)C2 (centres undefined),active: 16.4 µM,–
Cc1oc2ccc(OS(C)(=O)=O)cc2c1C(=O)OC(C)C,"inconclusive [inhibitor, single point]",–
O=C(N1CCOCC1)N1CCN(c2ccccc2F)CC1,–,inconclusive: -21% [inhibitor]
CC(/C=N/n1c(C2CCCCC2)n[nH]c1=S)=C\c1ccccc1,"inconclusive [inhibitor, single point]",–
O=C(NCC(=O)N1CCCCCCC1)c1cccc([N+](=O)[O-])c1,"inconclusive [inhibitor, single point]",–
CCC(=O)O[C@]1(C(=O)CCl)[C@@H](C)C[C@H]2[C@@H]3CCC4=CC(=O)C=C[C@]4(C)[C@@]3(F)[C@@H](O)C[C@@]21C,"inconclusive [inhibitor, single point]",–

Compound,Potency,"activity change, negative = growth inhibition"
COc1ccc(OC)c(/C=N\Nc2nccs2)c1,"inconclusive [inhibitor, single point]",–
CC(C)C[C@H](NC(=O)c1[nH]cnc1C(=O)Nc1ccc(Cl)cc1)C(=O)OC(C)(C)C,"inconclusive [inhibitor, single point]",–
COc1ccc(-c2noc(-c3ccc(N4CCCC4)c([N+](=O)[O-])c3)n2)cc1OC,"inconclusive [inhibitor, single point]",–
CNc1ccc(Br)cc(C(=O)/C=C/c2cccc(OC)c2)c1=O,active: 13 µM,–
COc1cccc(NC(=O)CN(C)C(=O)CN2C(=O)NC(C)(c3ccc4ccccc4c3)C2=O)c1 (centres undefined),"inconclusive [inhibitor, single point]",–
CC(OC(=O)c1cccc(S(=O)(=O)N2CCCC2)c1)C(=O)NC1CCCCC1C (centres undefined),inactive,–
CCCCn1c(=O)[nH]c(=O)c2c1nc(-c1ccc(-c3ccccc3)cc1)n2C,"inconclusive [inhibitor, partial curve]",–
CCCNC(=O)c1ccc(N2CCC3(CC2)CC(c2ccccc2)=NO3)c(NC(=O)c2cccc(OC)c2)c1,"inconclusive [inhibitor, single point]",–
NC(=O)c1ccccc1OCc1cccc2ccccc12,"inconclusive [inhibitor, single point]",–
COC(=O)c1cnn(-c2ccc(C)c(C)c2)c1-n1cccc1,"inconclusive [inhibitor, partial curve]",–
COc1ccc(-c2cc(NC(C)=O)c3ncc(-c4cccc(C(F)(F)F)c4)n3c2)c(OC)c1,"inconclusive [inhibitor, single point]",–
O=C(N/N=C1\CCS(=O)(=O)c2ccc(F)cc21)c1ccc([N+](=O)[O-])cc1,"inconclusive [inhibitor, single point]",–
CN(CC(=O)Nc1ccccc1C(F)(F)F)C(=O)CSCc1ccccc1,–,inconclusive: -32.1% [inhibitor]
C/C(CC(=O)Nc1cc(C)ccn1)=N\NC(=O)c1ccc(C(C)(C)C)cc1,"inconclusive [inhibitor, single point]",–
COc1ccc(OC)c(-n2c(C)cc(C=O)c2C)c1,inactive,–
Cc1ccc(C(NC(=O)c2ccccc2)C(Cl)Cl)cc1 (centres undefined),"inconclusive [inhibitor, single point]",–
CCOC(=O)Cc1cc(=O)c2cc(C)ccc2[nH]1,"inconclusive [inhibitor, single point]",–
COc1cc(C(=S)N2CCOCC2)cc(OC)c1OC(=O)c1ccc([N+](=O)[O-])cc1[N+](=O)[O-],"inconclusive [inhibitor, single point]",–
CC1C(C(=O)Nc2ccccc2)CCCC1(C)C(=O)O (centres undefined),inactive,–
O=C(CN1CCc2cc3c(cc2C1)OCCCO3)Nc1ccc(S(=O)(=O)N2CCCC2)cc1,"inconclusive [inhibitor, single point]",–

# Reference: PubChem BioAssay AID686979 (National Center for Advancing Translational Sciences (NCATS), 2013)
